Assay [1] deals with T1, Endogenous Dub3 (human (endogenous in MDA-MB157 and SUM159)) (UniProt Q6R6M4).
T1 sequence: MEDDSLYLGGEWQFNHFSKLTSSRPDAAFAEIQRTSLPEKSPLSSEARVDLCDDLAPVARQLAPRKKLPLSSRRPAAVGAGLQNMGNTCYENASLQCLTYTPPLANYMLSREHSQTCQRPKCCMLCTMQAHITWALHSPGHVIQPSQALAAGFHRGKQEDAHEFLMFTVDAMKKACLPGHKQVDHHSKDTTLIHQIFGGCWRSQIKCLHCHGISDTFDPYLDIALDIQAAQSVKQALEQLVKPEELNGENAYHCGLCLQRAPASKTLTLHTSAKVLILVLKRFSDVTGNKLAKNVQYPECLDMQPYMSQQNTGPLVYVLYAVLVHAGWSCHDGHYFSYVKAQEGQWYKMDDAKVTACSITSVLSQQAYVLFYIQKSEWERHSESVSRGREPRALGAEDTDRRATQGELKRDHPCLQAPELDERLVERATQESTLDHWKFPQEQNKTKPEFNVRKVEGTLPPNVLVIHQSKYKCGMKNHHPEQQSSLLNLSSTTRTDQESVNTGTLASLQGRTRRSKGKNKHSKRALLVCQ
The assay can be described thus: co-IP; endogenous proteins immunoprecipitated from MDA-MB157 and SUM159 cells, western blot. In general terms: In western blotting, separated proteins are transferred to a membrane and probed.

The chains behind the UniProt entries cited, without tags or fusion partners.
UniProt Q96RU2: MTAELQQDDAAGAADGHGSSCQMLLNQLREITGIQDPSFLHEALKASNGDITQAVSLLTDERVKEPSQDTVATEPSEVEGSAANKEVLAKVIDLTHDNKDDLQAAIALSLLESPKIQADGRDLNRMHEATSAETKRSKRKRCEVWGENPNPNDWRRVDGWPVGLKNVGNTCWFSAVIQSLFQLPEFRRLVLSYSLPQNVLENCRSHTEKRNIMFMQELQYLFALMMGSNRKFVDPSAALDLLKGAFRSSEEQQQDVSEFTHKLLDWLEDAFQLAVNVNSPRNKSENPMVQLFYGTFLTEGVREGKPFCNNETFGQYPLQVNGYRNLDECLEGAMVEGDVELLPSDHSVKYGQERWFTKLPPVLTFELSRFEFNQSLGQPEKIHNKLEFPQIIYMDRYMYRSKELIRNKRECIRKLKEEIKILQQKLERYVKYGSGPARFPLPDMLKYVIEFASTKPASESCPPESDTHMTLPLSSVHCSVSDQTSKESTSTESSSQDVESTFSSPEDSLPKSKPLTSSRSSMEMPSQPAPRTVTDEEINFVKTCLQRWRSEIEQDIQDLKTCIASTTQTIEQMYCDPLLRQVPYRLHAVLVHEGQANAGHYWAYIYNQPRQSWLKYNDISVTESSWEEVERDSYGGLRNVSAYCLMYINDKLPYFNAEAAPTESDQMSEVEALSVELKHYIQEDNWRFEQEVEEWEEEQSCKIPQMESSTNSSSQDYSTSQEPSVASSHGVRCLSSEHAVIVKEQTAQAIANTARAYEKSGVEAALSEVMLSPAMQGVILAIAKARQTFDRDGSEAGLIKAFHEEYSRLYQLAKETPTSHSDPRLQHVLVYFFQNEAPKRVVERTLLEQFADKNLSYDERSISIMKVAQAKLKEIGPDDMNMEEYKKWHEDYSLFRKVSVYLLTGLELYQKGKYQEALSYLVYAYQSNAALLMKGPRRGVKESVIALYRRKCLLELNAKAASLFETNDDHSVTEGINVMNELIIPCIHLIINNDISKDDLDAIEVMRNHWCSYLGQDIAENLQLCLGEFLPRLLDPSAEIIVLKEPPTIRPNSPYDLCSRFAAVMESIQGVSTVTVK
UniProt Q15672: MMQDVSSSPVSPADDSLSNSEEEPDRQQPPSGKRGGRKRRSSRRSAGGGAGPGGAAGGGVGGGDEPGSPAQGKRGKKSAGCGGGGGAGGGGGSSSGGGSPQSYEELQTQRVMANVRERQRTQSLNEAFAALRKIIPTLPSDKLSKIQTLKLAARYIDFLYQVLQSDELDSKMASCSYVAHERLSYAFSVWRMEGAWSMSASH

The next assay deals with T2, Flag-tagged Dub3 (UniProt Q6R6M4).
T2 sequence: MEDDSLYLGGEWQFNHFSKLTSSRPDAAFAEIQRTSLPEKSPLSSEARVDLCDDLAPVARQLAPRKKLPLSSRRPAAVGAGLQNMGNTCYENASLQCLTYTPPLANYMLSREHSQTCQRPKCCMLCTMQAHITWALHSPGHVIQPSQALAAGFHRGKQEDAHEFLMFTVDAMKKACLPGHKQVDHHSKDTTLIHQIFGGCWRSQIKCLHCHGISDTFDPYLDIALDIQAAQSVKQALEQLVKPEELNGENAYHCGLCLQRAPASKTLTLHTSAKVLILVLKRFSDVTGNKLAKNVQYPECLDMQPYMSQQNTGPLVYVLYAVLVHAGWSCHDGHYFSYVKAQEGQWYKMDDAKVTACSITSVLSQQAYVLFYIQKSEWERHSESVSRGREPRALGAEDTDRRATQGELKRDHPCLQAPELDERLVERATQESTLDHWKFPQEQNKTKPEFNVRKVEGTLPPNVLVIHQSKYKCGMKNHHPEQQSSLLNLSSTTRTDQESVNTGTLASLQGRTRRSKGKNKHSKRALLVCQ
Kind of assay: co-IP; tagged proteins co-expressed in HEK293 cells; IP with Myc, HA or Flag antibody, western blot; IP buffer 50 mM Tris pH 7.5, 150 mM NaCl, 1% NP-40, 1 mM EDTA, 0.25% deoxycholate; overnight at 4°C.

The target of the next assay is Flag-tagged USP28 (UniProt Q96RU2). The assay is described as above.
A further assay concerns the target T3, Myc-Dub3 (UniProt Q6R6M4).
T3 sequence: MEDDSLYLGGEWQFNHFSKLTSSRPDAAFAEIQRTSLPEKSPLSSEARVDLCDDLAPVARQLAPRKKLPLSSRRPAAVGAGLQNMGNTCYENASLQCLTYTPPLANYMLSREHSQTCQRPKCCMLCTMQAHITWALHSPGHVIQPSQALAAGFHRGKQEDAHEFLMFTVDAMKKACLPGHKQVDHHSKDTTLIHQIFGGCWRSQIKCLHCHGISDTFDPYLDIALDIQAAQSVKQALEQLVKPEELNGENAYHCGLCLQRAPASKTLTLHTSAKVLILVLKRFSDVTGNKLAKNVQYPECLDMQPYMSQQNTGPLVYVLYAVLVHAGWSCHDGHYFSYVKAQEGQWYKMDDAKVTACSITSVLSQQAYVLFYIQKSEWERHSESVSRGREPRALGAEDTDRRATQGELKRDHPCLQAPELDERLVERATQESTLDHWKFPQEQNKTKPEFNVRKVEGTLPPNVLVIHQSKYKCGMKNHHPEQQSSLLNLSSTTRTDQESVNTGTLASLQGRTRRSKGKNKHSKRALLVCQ
The description is as above.

Another assay addresses T4, Flag-tagged Slug (UniProt O43623).
T4 sequence: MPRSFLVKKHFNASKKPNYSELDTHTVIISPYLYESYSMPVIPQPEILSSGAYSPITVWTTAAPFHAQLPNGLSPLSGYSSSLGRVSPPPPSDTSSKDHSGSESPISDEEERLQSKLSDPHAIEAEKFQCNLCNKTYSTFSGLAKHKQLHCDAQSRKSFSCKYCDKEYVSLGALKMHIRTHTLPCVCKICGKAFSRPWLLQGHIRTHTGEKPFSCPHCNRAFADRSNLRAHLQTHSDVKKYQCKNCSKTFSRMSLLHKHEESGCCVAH
Described as above.

The target of another assay is HA-tagged Twist (UniProt Q15672). Described as above.
The next assay has as its target T5, HA-tagged Dub3 (UniProt Q6R6M4).
T5 sequence: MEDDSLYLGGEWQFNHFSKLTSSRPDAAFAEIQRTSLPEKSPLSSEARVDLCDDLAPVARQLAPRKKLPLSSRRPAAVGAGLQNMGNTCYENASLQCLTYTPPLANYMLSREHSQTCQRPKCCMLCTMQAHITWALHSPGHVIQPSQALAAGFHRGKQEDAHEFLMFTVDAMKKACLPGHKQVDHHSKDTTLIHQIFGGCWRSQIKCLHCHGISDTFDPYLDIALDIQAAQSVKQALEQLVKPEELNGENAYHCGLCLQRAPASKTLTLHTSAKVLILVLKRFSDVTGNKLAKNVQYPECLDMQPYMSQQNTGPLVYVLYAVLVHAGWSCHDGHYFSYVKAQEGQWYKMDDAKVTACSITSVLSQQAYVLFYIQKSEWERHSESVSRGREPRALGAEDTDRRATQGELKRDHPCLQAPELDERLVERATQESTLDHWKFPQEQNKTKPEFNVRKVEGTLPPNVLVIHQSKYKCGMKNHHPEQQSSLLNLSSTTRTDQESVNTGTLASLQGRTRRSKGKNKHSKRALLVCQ
Described as above.

In the next assay the target is HA-tagged USP28 (UniProt Q96RU2). The description is as above.

These are yes or no findings as the source states them, for the method shown. In cells and extracts the contact can be indirect. Some results given as binding are weak or reduced against the parent protein; the word gives no strength. For some of these results: Where a sequence is shown, tags or fusion partners need not be part of it.

With “Endogenous Twist (from UniProt Q15672 1-202)”, the binding result in assay [1] was “binds”.

With “HA-tagged Twist (from UniProt Q15672 1-202)”, the binding entry in the assay with Flag-tagged Dub3 is given as “binds”; with Flag-tagged USP28, “no binding”; with Myc-Dub3, “binds”.

B1: Myc-Dub3 (enzyme, UniProt Q6R6M4 1-530)
chain: MEDDSLYLGGEWQFNHFSKLTSSRPDAAFAEIQRTSLPEKSPLSSEARVDLCDDLAPVARQLAPRKKLPLSSRRPAAVGAGLQNMGNTCYENASLQCLTYTPPLANYMLSREHSQTCQRPKCCMLCTMQAHITWALHSPGHVIQPSQALAAGFHRGKQEDAHEFLMFTVDAMKKACLPGHKQVDHHSKDTTLIHQIFGGCWRSQIKCLHCHGISDTFDPYLDIALDIQAAQSVKQALEQLVKPEELNGENAYHCGLCLQRAPASKTLTLHTSAKVLILVLKRFSDVTGNKLAKNVQYPECLDMQPYMSQQNTGPLVYVLYAVLVHAGWSCHDGHYFSYVKAQEGQWYKMDDAKVTACSITSVLSQQAYVLFYIQKSEWERHSESVSRGREPRALGAEDTDRRATQGELKRDHPCLQAPELDERLVERATQESTLDHWKFPQEQNKTKPEFNVRKVEGTLPPNVLVIHQSKYKCGMKNHHPEQQSSLLNLSSTTRTDQESVNTGTLASLQGRTRRSKGKNKHSKRALLVCQ
For B1, the binding result with Flag-tagged Slug and in the assay with HA-tagged Twist was “binds” throughout.

B2: Flag-tagged Slug (protein, UniProt O43623 1-268)
chain: MPRSFLVKKHFNASKKPNYSELDTHTVIISPYLYESYSMPVIPQPEILSSGAYSPITVWTTAAPFHAQLPNGLSPLSGYSSSLGRVSPPPPSDTSSKDHSGSESPISDEEERLQSKLSDPHAIEAEKFQCNLCNKTYSTFSGLAKHKQLHCDAQSRKSFSCKYCDKEYVSLGALKMHIRTHTLPCVCKICGKAFSRPWLLQGHIRTHTGEKPFSCPHCNRAFADRSNLRAHLQTHSDVKKYQCKNCSKTFSRMSLLHKHEESGCCVAH
As for B2, the binding result was “binds” in the assay with HA-tagged Dub3, “no binding” with HA-tagged USP28 and “binds” in the assay with Myc-Dub3.

B3: Endogenous Slug (protein, UniProt O43623 1-268)
chain: MPRSFLVKKHFNASKKPNYSELDTHTVIISPYLYESYSMPVIPQPEILSSGAYSPITVWTTAAPFHAQLPNGLSPLSGYSSSLGRVSPPPPSDTSSKDHSGSESPISDEEERLQSKLSDPHAIEAEKFQCNLCNKTYSTFSGLAKHKQLHCDAQSRKSFSCKYCDKEYVSLGALKMHIRTHTLPCVCKICGKAFSRPWLLQGHIRTHTGEKPFSCPHCNRAFADRSNLRAHLQTHSDVKKYQCKNCSKTFSRMSLLHKHEESGCCVAH
As to B3, the binding result in assay [1] is listed as “binds”.

Values taken from publication PMC5650406.
